In all, about 420,000 compounds went through this assay and about 64,000 (15%) were called active. The inconclusive results got no clear call from the source; some entries with a clear call stand among them for comparison. Calls follow the shape of the dose curve; as a rule, active = well fitted inhibition curve with a large enough effect; inconclusive = small, poorly fitted or top-dose-only effect; inactive = flat fitted curve, though single readings scatter. No potency is given beside an inconclusive call; the fits are too rough.
Assay: qHTS for Inhibitors of human tyrosyl-DNA phosphodiesterase 1 (TDP1): qHTS in cells in absence of CPT; also: nearly all actives have a fitted effect of over 55% in size
Details: DT40 Tdp1-/- hTDP1 cells, no CPT, ATP luminescence, 48 h; activity change, negative = growth inhibition: at 46.2 µM (top of the series) unless noted
Procedure, shortened: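 Chicken DT40 Tdp1-/- cells complemented with human TDP1, screened without camptothecin (DMSO vehicle only), 400 cells/well. Compounds pin-transferred, cells incubated at 37 °C for at least 48 hr. Growth read as ATP-dependent luminescence (CellTiter-Glo, 30 min at RT).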
For `CCN1CCCC1CNC(=O)c1cc2cc(OC)c(OC)cc2[nH]1` (centres undefined), the Potency was “inactive”.
In the case of `Cc1cc(Br)ccc1OCCN1CCCC1`, the Potency is reported as inconclusive [inhibitor, single point].
With `CO[C@H]1[C@H](NC(=O)c2ccsc2)c2ccccc2C12CCN(Cc1cc3ccccc3o1)CC2` the Potency was inconclusive [inhibitor, single point].
With `COc1ccc(CN(Cc2cccnc2)S(=O)(=O)c2ccc(-n3cnnn3)c(C)c2)cc1OC` the Potency was inconclusive [inhibitor, partial curve].
In the case of `O=C(COC(=O)c1ccc[nH]c1=O)NCC12CC3CC(CC(C3)C1)C2`, the Potency is reported as “inactive”.
For `CCC(C(=O)O)c1ccccc1` (centres undefined), the Potency was “inactive”.
With `CCn1c(COc2ccc(=O)n(-c3ccccc3)n2)nnc1SCc1ccc(C)cc1` the activity change, negative = growth inhibition was inconclusive: -31.7% [inhibitor].
In the case of `COc1ccc(S(=O)(=O)NC(CC(=O)NCCc2ccc(OC)c(OC)c2)c2ccco2)cc1` (centres undefined), the Potency is reported as inconclusive [inhibitor, partial curve, poor fit].
For `CC(C)Cn1c(CN2C(=O)c3ccccc3C2=O)nc2ccccc2c1=O`, the Potency was “inactive”.
In the case of `CC(=O)c1ccc(S(=O)(=O)N(Cc2cc3cc4c(cc3[nH]c2=O)OCCO4)CC2CCCO2)cc1` (centres undefined), the Potency is reported as active: 11.2 µM.
With `NC(=O)C1(N2CCCCC2)CCN(C(=O)c2cc(COc3c(F)cccc3F)on2)CC1` the Potency was inconclusive [inhibitor, single point].
In the case of `O=C(c1cccc([N+](=O)[O-])c1)N1CCCC(C(=O)N2CCc3ccccc3C2)C1` (centres undefined), the activity change, negative = growth inhibition is reported as inconclusive: -34.7% [inhibitor].
With `Cc1ccc(S(=O)(=O)N2CCCC2C(=O)OCc2nc3ccccc3s2)cc1` (centres undefined) the activity change, negative = growth inhibition was inconclusive: -36.7% [inhibitor].
For `CCC(C)n1c(=S)[nH]c2c(sc3ccc([N+](=O)[O-])cc32)c1=O` (centres undefined), the Potency was inconclusive [inhibitor, single point].
With `COc1ccc(N2CCN(C(=O)CSc3nnc4c(C)cc5c(C)cc(C)cc5n34)CC2)cc1` the Potency was active: 23.1 µM.
In the case of `Cc1ccc(-c2nnc(SCC(=O)NC3CC3)o2)cc1`, the Potency is reported as “inactive”.
For `CCCCCOC(=O)c1ccc(OC(=O)c2sc3ncn(Cc4cccc(F)c4)c(=O)c3c2C)cc1`, the Potency was “inactive”.
For `CCOC(=O)c1cc(S(=O)(=O)N2CCN(c3ccc(F)cc3)CC2)[nH]n1`, the Potency was active: 18.4 µM.
With `CC(C)CN(/C=N/c1sc2c(c1C#N)CCCCC2)CC(C)C` the Potency was active: 14.6 µM.
In the case of `C=CCn1c(-c2ccccc2)c[nH]c1=S`, the Potency is reported as inconclusive [inhibitor, single point].
In the case of `CCN1CCN(C(=O)c2cc(COc3c(C)cccc3C)on2)CC1`, the Potency is reported as “inactive”.
With `CCOc1ccc2c(c1)cc(CN(C(=O)CC)C1CCCCC1)c1nnnn12` the Potency was inconclusive [inhibitor, partial curve, poor fit].
For `COc1ccc(OC)c(CNc2sc3c(c2C(=O)Nc2cc(OC)ccc2OC)CCCC3)c1`, the Potency was inconclusive [inhibitor, single point].
With `O=C(Nc1ccccc1F)c1ccccc1C(=O)Nc1ccccc1F` the Potency was “inactive”.
For `CC(C)(C)NC(=O)C(c1ccco1)N(C(=O)c1ccc(CN2CCOCC2)o1)c1ccccc1` (centres undefined), the Potency was inconclusive [inhibitor, partial curve, poor fit].
With `COc1ccc(OC2C(=O)N(Cc3ccc(F)cc3)C2c2cc(OC)c(OC)c(OC)c2)cc1` (centres undefined) the Potency was active: 23.1 µM.
In the case of `CC[C@]12c3[nH]c4cc(CCC(=O)N(C)C)ccc4c3CCN1C(=O)[C@@H](CC(=O)NCCCOC)C[C@@H]2C(=O)N1CCN(C(=O)C2CC2)CC1`, the Potency is reported as “inactive”.
With `O=C(C[C@H]1C[C@H](C(=O)N2CCCCC2)[C@@]2(CCc3ccccc3)c3[nH]c4cc(-c5ccco5)ccc4c3CCN2C1=O)NCc1ccco1` the Potency was inconclusive [inhibitor, single point].
For `CN(c1ccccc1)S(=O)(=O)c1ccc(C(=O)Nc2nnc(C3=COCCO3)o2)cc1`, the Potency was inconclusive [inhibitor, single point].
For `CC(=O)N1CCCc2cc(S(=O)(=O)N3CCCC(C(=O)Nc4cccc(Cl)c4C)C3)ccc21` (centres undefined), the Potency was inconclusive [inhibitor, partial curve, poor fit].
For `COc1ccc2nc3n(c(=O)c2c1)-c1ncccc1C(=O)NC3Cc1ccccc1` (centres undefined), the Potency was inconclusive [inhibitor, single point].
For `COc1cc(OC)c(OC)cc1CN1CCN(Cc2ccc(C(F)(F)F)cc2)CC1`, the Potency was inconclusive [inhibitor, single point].
With `Nc1nc2ccccc2n1Cc1ccc(Cl)c(Cl)c1` the Potency was inconclusive [inhibitor, single point].
For `O=[N+]([O-])c1ccc(-c2nc(Cl)c3c(n2)CCCC3)o1`, the Potency was active: 16.4 µM.
In the case of `O=C(Oc1ccc(-c2cnc3ccccc3n2)cc1)c1ccco1`, the Potency is reported as inconclusive [inhibitor, partial curve].
In the case of `Clc1ccc2[nH]cc(-c3nnnn3-c3ccccc3)c2c1`, the Potency is reported as inconclusive [inhibitor, partial curve, poor fit].
With `CC(C)CC(=O)NC(=S)Nc1ccccc1N1CCCC1` the Potency was inconclusive [inhibitor, partial curve].
In the case of `CCOC(=O)c1cnc2ccc(OCC)cc2c1Nc1cc(Cl)c(OC)cc1OC`, the Potency is reported as active: 25.9 µM.
With `CCc1c(C)nc(N2CCN(c3ccc(OC)cc3)CC2)[nH]c1=O` the Potency was active: 20.6 µM.
In the case of `Cc1ccc(C)c(OC(=O)CSc2nnc(-c3ccc4c(c3)OCO4)o2)c1`, the Potency is reported as “inactive”.
In the case of `CS(=O)(=O)N1CCN(c2ccccc2NC(=O)Nc2cccc(Cl)c2)CC1`, the Potency is reported as inconclusive [inhibitor, single point].
For `Cc1ccc(NC(=O)c2c(C(F)(F)F)nn(C)c2SCc2cccc(C(F)(F)F)c2)cc1C`, the Potency was active: 4.11 µM.
With `COc1ccc(-n2c(NN)nc3sc4c(c3c2=O)CCCC4)cc1` the Potency was inconclusive [inhibitor, single point].
For `N#Cc1ccc(-c2cccnc2)nc1SCC(=O)c1ccccc1`, the Potency was inconclusive [inhibitor, single point].

Source: PubChem BioAssay AID686978 (National Center for Advancing Translational Sciences (NCATS), 2013)
% is scaled to controls: 0 for no effect and ±100 for the full control effect; potency is read from the fitted curve at half-maximal effect; tags tell the direction and shape of the fitted curve.
